# Measured values as given in publication PMC12820563.
# Some of the results follow. The list includes weakly bound sequences.
# Target: T1, MBP-FoxP3dN (UniProt Q99JB6)
# T1 sequence: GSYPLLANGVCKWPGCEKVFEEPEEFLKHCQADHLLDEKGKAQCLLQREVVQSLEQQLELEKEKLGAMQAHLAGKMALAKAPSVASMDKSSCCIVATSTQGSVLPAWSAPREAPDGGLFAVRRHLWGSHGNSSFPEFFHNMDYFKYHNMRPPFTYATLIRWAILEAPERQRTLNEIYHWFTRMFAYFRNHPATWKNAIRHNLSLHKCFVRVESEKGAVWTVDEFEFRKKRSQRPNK
# Experiment: PD-seq (MBP pull-down with sequencing)
# Conditions: 20 mM Tris-HCl pH 7.5, 100 mM NaCl, 1.5 mM MgCl2, 0.4 uM protein, 0.1 uM dsDNA library, 30 min, room temperature, amylose pull-down; high values mean tight binding; double strand, one strand shown
row,Sequence,binding signal (RPM ratio (pull-down/input))
1,GATGATTGTTCTCCCAGCTGATGAATTATCCAGTTCGAGTAAACAAATTTTCCTAATCTTTCTGTTCAAGCGCCATCTAC,0.235
2,GATGATTGTTCTCCCAGCTGATGAATTCTTCTGGTCGAGTAAACAAATTTTCCTAATCTTTCTGTTCAAGCGCCATCTAC,0.192
3,GATGATTGTTCTCCCAGCTGATGAATTAGCAGAATCGAGTAAACAAATTTTCCTAATCTTTCTGTTCAAGCGCCATCTAC,0.204
4,GATGATTGTTCTCCCAGCTGATGAATTGTATGGCTCGAGTAAACAAATTTTCCTAATCTTTCTGTTCAAGCGCCATCTAC,1.21
5,GATGATTGTTCTCCCAGCTGATGAATTCATACAATCGAGTAAACAAATTTTCCTAATCTTTCTGTTCAAGCGCCATCTAC,0.579
6,GATGATTGTTCTCCCAGCTGATGAATTCCGGGAATCGAGTAAACAAATTTTCCTAATCTTTCTGTTCAAGCGCCATCTAC,0.196
7,GATGATTGTTCTCCCAGCTGATGAATTGCCCTGCTCGAGTAAACAAATTTTCCTAATCTTTCTGTTCAAGCGCCATCTAC,0.383
8,GATGATTGTTCTCCCAGCTGATGAATTCGTCGCGTCGAGTAAACAAATTTTCCTAATCTTTCTGTTCAAGCGCCATCTAC,0.76
9,GATGATTGTTCTCCCAGCTGATGAATTATCACCTTCGAGTAAACAAATTTTCCTAATCTTTCTGTTCAAGCGCCATCTAC,0.388
10,GATGATTGTTCTCCCAGCTGATGAATTCTTTACATCGAGTAAACAAATTTTCCTAATCTTTCTGTTCAAGCGCCATCTAC,0.43
11,GATGATTGTTCTCCCAGCTGATGAATTACCCTATTCGAGTAAACAAATTTTCCTAATCTTTCTGTTCAAGCGCCATCTAC,0.353
12,GATGATTGTTCTCCCAGCTGATGAATTCCCCTGCTCGAGTAAACAAATTTTCCTAATCTTTCTGTTCAAGCGCCATCTAC,0.212
13,GATGATTGTTCTCCCAGCTGATGAATTGATTTCGTCGAGTAAACAAATTTTCCTAATCTTTCTGTTCAAGCGCCATCTAC,0.847
14,GATGATTGTTCTCCCAGCTGATGAATTAGATTCGTCGAGTAAACAAATTTTCCTAATCTTTCTGTTCAAGCGCCATCTAC,0.671
15,GATGATTGTTCTCCCAGCTGATGAATTAATATAATCGAGTAAACAAATTTTCCTAATCTTTCTGTTCAAGCGCCATCTAC,0.438
16,GATGATTGTTCTCCCAGCTGATGAATTGACACTCTCGAGTAAACAAATTTTCCTAATCTTTCTGTTCAAGCGCCATCTAC,0.6
17,GATGATTGTTCTCCCAGCTGATGAATTTGCGGGCTCGAGTAAACAAATTTTCCTAATCTTTCTGTTCAAGCGCCATCTAC,0.703
18,GATGATTGTTCTCCCAGCTGATGAATTGGCATGTTCGAGTAAACAAATTTTCCTAATCTTTCTGTTCAAGCGCCATCTAC,1.37
19,GATGATTGTTCTCCCAGCTGATGAATTATTGTCGTCGAGTAAACAAATTTTCCTAATCTTTCTGTTCAAGCGCCATCTAC,1.32
20,GATGATTGTTCTCCCAGCTGATGAATTTGTTCAATCGAGTAAACAAATTTTCCTAATCTTTCTGTTCAAGCGCCATCTAC,0.584
21,GATGATTGTTCTCCCAGCTGATGAATTACCCCTATCGAGTAAACAAATTTTCCTAATCTTTCTGTTCAAGCGCCATCTAC,0.321

row,Sequence,binding signal (RPM ratio (pull-down/input))
1,GATGATTGTTCTCCCAGCTGATGAATTGTAACCTTCGAGTAAACAAATTTTCCTAATCTTTCTGTTCAAGCGCCATCTAC,0.604
2,GATGATTGTTCTCCCAGCTGATGAATTTTACGTATCGAGTAAACAAATTTTCCTAATCTTTCTGTTCAAGCGCCATCTAC,0.57
3,GATGATTGTTCTCCCAGCTGATGAATTTTTCATATCGAGTAAACAAATTTTCCTAATCTTTCTGTTCAAGCGCCATCTAC,0.307
4,GATGATTGTTCTCCCAGCTGATGAATTTGTTTATTCGAGTAAACAAATTTTCCTAATCTTTCTGTTCAAGCGCCATCTAC,7.73
5,GATGATTGTTCTCCCAGCTGATGAATTTACGGCCTCGAGTAAACAAATTTTCCTAATCTTTCTGTTCAAGCGCCATCTAC,0.586
6,GATGATTGTTCTCCCAGCTGATGAATTACTTCACTCGAGTAAACAAATTTTCCTAATCTTTCTGTTCAAGCGCCATCTAC,0.319
7,GATGATTGTTCTCCCAGCTGATGAATTTAAGTCCTCGAGTAAACAAATTTTCCTAATCTTTCTGTTCAAGCGCCATCTAC,0.424
8,GATGATTGTTCTCCCAGCTGATGAATTTATCCCCTCGAGTAAACAAATTTTCCTAATCTTTCTGTTCAAGCGCCATCTAC,0.817
9,GATGATTGTTCTCCCAGCTGATGAATTTTAACGATCGAGTAAACAAATTTTCCTAATCTTTCTGTTCAAGCGCCATCTAC,0.302
10,GATGATTGTTCTCCCAGCTGATGAATTTGCGGGGTCGAGTAAACAAATTTTCCTAATCTTTCTGTTCAAGCGCCATCTAC,1.36
11,GATGATTGTTCTCCCAGCTGATGAATTCGAATGCTCGAGTAAACAAATTTTCCTAATCTTTCTGTTCAAGCGCCATCTAC,0.945
12,GATGATTGTTCTCCCAGCTGATGAATTCTCGTACTCGAGTAAACAAATTTTCCTAATCTTTCTGTTCAAGCGCCATCTAC,0.341
13,GATGATTGTTCTCCCAGCTGATGAATTTGAGCAGTCGAGTAAACAAATTTTCCTAATCTTTCTGTTCAAGCGCCATCTAC,0.341
14,GATGATTGTTCTCCCAGCTGATGAATTGTAACTTTCGAGTAAACAAATTTTCCTAATCTTTCTGTTCAAGCGCCATCTAC,0.724
15,GATGATTGTTCTCCCAGCTGATGAATTCACCCGGTCGAGTAAACAAATTTTCCTAATCTTTCTGTTCAAGCGCCATCTAC,0.193
16,GATGATTGTTCTCCCAGCTGATGAATTTAGTTAGTCGAGTAAACAAATTTTCCTAATCTTTCTGTTCAAGCGCCATCTAC,2.54
17,GATGATTGTTCTCCCAGCTGATGAATTATCCTGGTCGAGTAAACAAATTTTCCTAATCTTTCTGTTCAAGCGCCATCTAC,0.181
18,GATGATTGTTCTCCCAGCTGATGAATTGTCATGGTCGAGTAAACAAATTTTCCTAATCTTTCTGTTCAAGCGCCATCTAC,0.55
19,GATGATTGTTCTCCCAGCTGATGAATTAAGATGGTCGAGTAAACAAATTTTCCTAATCTTTCTGTTCAAGCGCCATCTAC,0.453
20,GATGATTGTTCTCCCAGCTGATGAATTGGTGCAGTCGAGTAAACAAATTTTCCTAATCTTTCTGTTCAAGCGCCATCTAC,0.786
21,GATGATTGTTCTCCCAGCTGATGAATTTCGCGTCTCGAGTAAACAAATTTTCCTAATCTTTCTGTTCAAGCGCCATCTAC,4.04

row,Sequence,binding signal (RPM ratio (pull-down/input))
1,GATGATTGTTCTCCCAGCTGATGAATTGCTGTCGTCGAGTAAACAAATTTTCCTAATCTTTCTGTTCAAGCGCCATCTAC,0.942
2,GATGATTGTTCTCCCAGCTGATGAATTGCAACGTTCGAGTAAACAAATTTTCCTAATCTTTCTGTTCAAGCGCCATCTAC,1.66
3,GATGATTGTTCTCCCAGCTGATGAATTATGTCACTCGAGTAAACAAATTTTCCTAATCTTTCTGTTCAAGCGCCATCTAC,4.21
4,GATGATTGTTCTCCCAGCTGATGAATTAGCCCCCTCGAGTAAACAAATTTTCCTAATCTTTCTGTTCAAGCGCCATCTAC,0.322
5,GATGATTGTTCTCCCAGCTGATGAATTGCGCAGCTCGAGTAAACAAATTTTCCTAATCTTTCTGTTCAAGCGCCATCTAC,2.42
6,GATGATTGTTCTCCCAGCTGATGAATTCTAGGGTTCGAGTAAACAAATTTTCCTAATCTTTCTGTTCAAGCGCCATCTAC,0.387
7,GATGATTGTTCTCCCAGCTGATGAATTGGGGTCTTCGAGTAAACAAATTTTCCTAATCTTTCTGTTCAAGCGCCATCTAC,0.528
8,GATGATTGTTCTCCCAGCTGATGAATTGCAACCTTCGAGTAAACAAATTTTCCTAATCTTTCTGTTCAAGCGCCATCTAC,2.51
9,GATGATTGTTCTCCCAGCTGATGAATTTGTGTAGTCGAGTAAACAAATTTTCCTAATCTTTCTGTTCAAGCGCCATCTAC,6.14
10,GATGATTGTTCTCCCAGCTGATGAATTCAGTCTGTCGAGTAAACAAATTTTCCTAATCTTTCTGTTCAAGCGCCATCTAC,0.407
11,GATGATTGTTCTCCCAGCTGATGAATTTATTGCCTCGAGTAAACAAATTTTCCTAATCTTTCTGTTCAAGCGCCATCTAC,5.03
12,GATGATTGTTCTCCCAGCTGATGAATTACACCTTTCGAGTAAACAAATTTTCCTAATCTTTCTGTTCAAGCGCCATCTAC,0.64
13,GATGATTGTTCTCCCAGCTGATGAATTGTAGAGGTCGAGTAAACAAATTTTCCTAATCTTTCTGTTCAAGCGCCATCTAC,0.339
14,GATGATTGTTCTCCCAGCTGATGAATTCCGGCGGTCGAGTAAACAAATTTTCCTAATCTTTCTGTTCAAGCGCCATCTAC,0.238
15,GATGATTGTTCTCCCAGCTGATGAATTAGCCCCTTCGAGTAAACAAATTTTCCTAATCTTTCTGTTCAAGCGCCATCTAC,0.349
16,GATGATTGTTCTCCCAGCTGATGAATTATCAAGCTCGAGTAAACAAATTTTCCTAATCTTTCTGTTCAAGCGCCATCTAC,0.285
17,GATGATTGTTCTCCCAGCTGATGAATTCCTTAGGTCGAGTAAACAAATTTTCCTAATCTTTCTGTTCAAGCGCCATCTAC,0.214
18,GATGATTGTTCTCCCAGCTGATGAATTCATATCCTCGAGTAAACAAATTTTCCTAATCTTTCTGTTCAAGCGCCATCTAC,0.789
19,GATGATTGTTCTCCCAGCTGATGAATTGAGAGACTCGAGTAAACAAATTTTCCTAATCTTTCTGTTCAAGCGCCATCTAC,0.476
20,GATGATTGTTCTCCCAGCTGATGAATTCGGAAGGTCGAGTAAACAAATTTTCCTAATCTTTCTGTTCAAGCGCCATCTAC,0.208
21,GATGATTGTTCTCCCAGCTGATGAATTCAGAACATCGAGTAAACAAATTTTCCTAATCTTTCTGTTCAAGCGCCATCTAC,0.366
